# The other results are listed elsewhere or left out.
# Tests used:
# Assay in all cases: glycan array binding signal (z-score within array); higher = stronger binding
# Conditions in all cases: glycan notation: IUPAC condensed, linker removed
# Fuc(b1-3)GlcNAc = target: Fuc(b1-3)GlcNAc
# In short: (§1)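 Columns mapping to the same glycan were averaged after glycan names were converted to IUPAC-condensed notation. The data come from 3228 arrays in the Consortium for Functional Glycomics database, limited to those with an available protein sequence. Binding is reported as a within-array Z-score averaged across arrays of one protein sequence and across linkers.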
# Gal(a1-2)Gal = target: Gal(a1-2)Gal
# In short: as §1
# Gal(a1-3)Gal = target: Gal(a1-3)Gal
# In short: as §1
# Gal(a1-3)Gal(b1-3)Glc = target: Gal(a1-3)Gal(b1-3)Glc
# In short: as §1
# Gal(a1-3)Gal(b1-3)GlcNAc = target: Gal(a1-3)Gal(b1-3)GlcNAc
# In short: as §1
# [1] = target: Gal(a1-3)Gal(b1-3)GlcNAc(b1-2)Man
# In short: as §1
# [2] = target: Gal(a1-3)Gal(b1-3)GlcNAc(b1-2)Man(a1-3)[Gal(a1-3)Gal(b1-3)GlcNAc(b1-2)Man(a1-6)]Man(b1-4)GlcNAc(b1-4)GlcNAc
# In short: as §1
# [3] = target: Gal(a1-3)Gal(b1-3)GlcNAc(b1-3)GalNAc
# In short: as §1
# [4] = target: Gal(a1-3)Gal(b1-3)GlcNAc(b1-6)GalNAc
# In short: as §1
# [5] = target: Gal(a1-3)Gal(b1-3)[Fuc(a1-4)]GlcNAc(b1-2)Man(a1-3)[Gal(a1-3)Gal(b1-3)[Fuc(a1-4)]GlcNAc(b1-2)Man(a1-6)]Man(b1-4)GlcNAc(b1-4)GlcNAc
# In short: as §1
# Gal(a1-3)Gal(b1-4)Glc = target: Gal(a1-3)Gal(b1-4)Glc
# In short: as §1
# Gal(a1-3)Gal(b1-4)GlcNAc = target: Gal(a1-3)Gal(b1-4)GlcNAc
# In short: as §1
# [6] = target: Gal(a1-3)Gal(b1-4)GlcNAc(b1-2)Man
# In short: as §1
# [7] = target: Gal(a1-3)Gal(b1-4)GlcNAc(b1-2)Man(a1-3)[Gal(a1-3)Gal(b1-4)GlcNAc(b1-2)Man(a1-6)]Man(b1-4)GlcNAc(b1-4)GlcNAc
# In short: as §1
# [8] = target: Gal(a1-3)Gal(b1-4)GlcNAc(b1-3)GalNAc
# In short: as §1
# [9] = target: Gal(a1-3)Gal(b1-4)GlcNAc(b1-6)GalNAc
# In short: as §1
# [10] = target: Gal(a1-3)Gal(b1-4)[Fuc(a1-3)]GalNAc
# In short: as §1
# [11] = target: Gal(a1-3)Gal(b1-4)[Fuc(a1-3)]GlcNAc
# In short: as §1
# [12] = target: Gal(a1-3)Gal(b1-4)[Fuc(a1-3)]GlcNAc(b1-2)Man(a1-3)[Gal(a1-3)Gal(b1-4)[Fuc(a1-3)]GlcNAc(b1-2)Man(a1-6)]Man(b1-4)GlcNAc(b1-4)GlcNAc
# In short: as §1
# Gal(a1-3)GalNAc = target: Gal(a1-3)GalNAc
# In short: as §1
# Gal(a1-3)GlcNAc = target: Gal(a1-3)GlcNAc
# In short: as §1
# [13] = target: Gal(a1-3)[Gal(a1-4)]Gal(b1-4)GlcNAc
# In short: as §1
# [14] = target: Gal(a1-4)Gal(b1-3)GlcNAc(b1-2)Man(a1-3)[Gal(a1-4)Gal(b1-3)GlcNAc(b1-2)Man(a1-6)]Man(b1-4)GlcNAc(b1-4)GlcNAc
# In short: as §1
# Gal(a1-4)Gal(b1-4)Gal = target: Gal(a1-4)Gal(b1-4)Gal
# In short: as §1
# Gal(a1-4)Gal(b1-4)GalNAc = target: Gal(a1-4)Gal(b1-4)GalNAc
# In short: as §1
# Gal(a1-4)Gal(b1-4)Glc = target: Gal(a1-4)Gal(b1-4)Glc
# In short: as §1
# Gal(a1-4)Gal(b1-4)GlcNAc = target: Gal(a1-4)Gal(b1-4)GlcNAc
# In short: as §1
# [15] = target: Gal(a1-4)Gal(b1-4)GlcNAc(b1-2)Man(a1-3)[Gal(a1-4)Gal(b1-4)GlcNAc(b1-2)Man(a1-6)]Man(b1-4)GlcNAc(b1-4)GlcNAc
# In short: as §1
# [16] = target: Gal(a1-4)Gal(b1-4)GlcNAc(b1-3)Gal(b1-4)Glc
# In short: as §1
# Gal(a1-4)GlcNAc = target: Gal(a1-4)GlcNAc
# In short: as §1
# Gal(a1-6)Glc = target: Gal(a1-6)Glc
# In short: as §1
# Gal(b1-2)Gal = target: Gal(b1-2)Gal
# In short: as §1
# Gal(b1-3)Gal = target: Gal(b1-3)Gal
# In short: as §1
# Gal(b1-3)Gal(b1-4)GlcNAc = target: Gal(b1-3)Gal(b1-4)GlcNAc
# In short: as §1
# Gal(b1-3)GalNAc = target: Gal(b1-3)GalNAc
# In short: as §1
# [17] = target: Gal(b1-3)GalNAc(a1-3)[Fuc(a1-2)]Gal(b1-4)Glc
# In short: as §1
# [18] = target: Gal(b1-3)GalNAc(a1-3)[Fuc(a1-2)]Gal(b1-4)GlcNAc
# In short: as §1
# Gal(b1-3)GalNAc(b1-3)Gal = target: Gal(b1-3)GalNAc(b1-3)Gal
# In short: as §1
# [19] = target: Gal(b1-3)GalNAc(b1-3)Gal(a1-4)Gal(b1-4)Glc
# In short: as §1
# [20] = target: Gal(b1-3)GalNAc(b1-3)Gal(b1-4)Glc
# In short: as §1
# [21] = target: Gal(b1-3)GalNAc(b1-3)Gal(b1-4)GlcNAc
# In short: as §1
# [22] = target: Gal(b1-3)GalNAc(b1-4)Gal(b1-4)Glc
# In short: as §1
# [23] = target: Gal(b1-3)GalNAc(b1-4)[Neu5Ac(a2-3)]Gal(b1-4)Glc
# In short: as §1
# Gal(b1-3)GlcNAc = target: Gal(b1-3)GlcNAc
# In short: as §1
# [24] = target: Gal(b1-3)GlcNAc(a1-3)Gal(b1-4)GlcNAc
# In short: as §1
binder,measurement,setting,value
"MGL1 (Mus musculus), P49300 (protein) MIYENLQNSRIEEKTQEPGKAPSQSFLWRILSWTHLLLFSLGLSLLLLVVVSVIGSQNSQLRRDLGTLRATLDNTTSKIKAEFQSLDSRADSFEKGISSLKVDVEDHRQELQAGRDLSQKVTSLESTVEKREQALKTDLSDLTDHVQQLRKDLKALTCQLANLKNNGSEVACCPLHWTEHEGSCYWFSESEKSWPEADKYCRLENSHLVVVNSLEEQNFLQNRLANVVSWIGLTDQNGPWRWVDGTDFEKGFKNWAPLQPDNWFGHGLGGGEDCAHITTGGPWNDDVCQRTFRWICEMKLAKES",glycan array binding signal (z-score),Fuc(b1-3)GlcNAc,0.3
same,glycan array binding signal (z-score),Gal(a1-2)Gal,0.142
same,glycan array binding signal (z-score),Gal(a1-3)Gal,-0.316
same,glycan array binding signal (z-score),Gal(a1-3)Gal(b1-3)Glc,-0.146
same,glycan array binding signal (z-score),Gal(a1-3)Gal(b1-3)GlcNAc,0.006
same,glycan array binding signal (z-score),[1],-0.462
same,glycan array binding signal (z-score),[2],0.854
same,glycan array binding signal (z-score),[3],0.472
same,glycan array binding signal (z-score),[4],0.267
same,glycan array binding signal (z-score),[5],-0.177
same,glycan array binding signal (z-score),Gal(a1-3)Gal(b1-4)Glc,-0.545
same,glycan array binding signal (z-score),Gal(a1-3)Gal(b1-4)GlcNAc,-0.512
same,glycan array binding signal (z-score),[6],-0.397
same,glycan array binding signal (z-score),[7],0.941
same,glycan array binding signal (z-score),[8],-0.744
same,glycan array binding signal (z-score),[9],0.224
same,glycan array binding signal (z-score),[10],-0.125
same,glycan array binding signal (z-score),[11],-0.823
same,glycan array binding signal (z-score),[12],-0.363
same,glycan array binding signal (z-score),Gal(a1-3)GalNAc,-0.127
same,glycan array binding signal (z-score),Gal(a1-3)GlcNAc,-0.127
same,glycan array binding signal (z-score),[13],1.06
same,glycan array binding signal (z-score),[14],2.41
same,glycan array binding signal (z-score),Gal(a1-4)Gal(b1-4)Gal,-0.073
same,glycan array binding signal (z-score),Gal(a1-4)Gal(b1-4)GalNAc,-0.121
same,glycan array binding signal (z-score),Gal(a1-4)Gal(b1-4)Glc,0.134
same,glycan array binding signal (z-score),Gal(a1-4)Gal(b1-4)GlcNAc,1.47
same,glycan array binding signal (z-score),[15],0.971
same,glycan array binding signal (z-score),[16],-0.091
same,glycan array binding signal (z-score),Gal(a1-4)GlcNAc,-0.286
same,glycan array binding signal (z-score),Gal(a1-6)Glc,-0.433
same,glycan array binding signal (z-score),Gal(b1-2)Gal,-0.24
same,glycan array binding signal (z-score),Gal(b1-3)Gal,-0.039
same,glycan array binding signal (z-score),Gal(b1-3)Gal(b1-4)GlcNAc,-0.408
same,glycan array binding signal (z-score),Gal(b1-3)GalNAc,-0.112
same,glycan array binding signal (z-score),[17],-0.106
same,glycan array binding signal (z-score),[18],0.981
same,glycan array binding signal (z-score),Gal(b1-3)GalNAc(b1-3)Gal,0.104
same,glycan array binding signal (z-score),[19],0.385
same,glycan array binding signal (z-score),[20],-0.076
same,glycan array binding signal (z-score),[21],-0.13
same,glycan array binding signal (z-score),[22],-0.087
same,glycan array binding signal (z-score),[23],-0.045
same,glycan array binding signal (z-score),Gal(b1-3)GlcNAc,-0.251
same,glycan array binding signal (z-score),[24],-0.042

# Source: the supplement of paper PMC8728848
